About 610 (0.55%) of roughly 110,000 compounds were called active. The shares of active, inactive and inconclusive entries below differ from those in the screen. Calls come from the whole dose curve; as a rule, active = well fitted inhibition curve with a large enough effect; inconclusive = small, poorly fitted or top-dose-only effect; inactive = no such curve, though single readings can be large or run the other way. A potency beside an inconclusive call is a rough fit, not a confirmed value.
These compounds were tested against Polyunsaturated fatty acid lipoxygenase ALOX15B (Homo sapiens) (UniProt O15296) (assay: qHTS Assay for Inhibitors of 15-hLO-2 (15-human lipoxygenase 2)). Details: purified 15hLO-2, xylenol orange hydroperoxide absorbance; activity change, negative = inhibition: at 57.1 µM (top of the series) unless noted.
Sequence of UniProt O15296 (O15296 whole entry, looked up): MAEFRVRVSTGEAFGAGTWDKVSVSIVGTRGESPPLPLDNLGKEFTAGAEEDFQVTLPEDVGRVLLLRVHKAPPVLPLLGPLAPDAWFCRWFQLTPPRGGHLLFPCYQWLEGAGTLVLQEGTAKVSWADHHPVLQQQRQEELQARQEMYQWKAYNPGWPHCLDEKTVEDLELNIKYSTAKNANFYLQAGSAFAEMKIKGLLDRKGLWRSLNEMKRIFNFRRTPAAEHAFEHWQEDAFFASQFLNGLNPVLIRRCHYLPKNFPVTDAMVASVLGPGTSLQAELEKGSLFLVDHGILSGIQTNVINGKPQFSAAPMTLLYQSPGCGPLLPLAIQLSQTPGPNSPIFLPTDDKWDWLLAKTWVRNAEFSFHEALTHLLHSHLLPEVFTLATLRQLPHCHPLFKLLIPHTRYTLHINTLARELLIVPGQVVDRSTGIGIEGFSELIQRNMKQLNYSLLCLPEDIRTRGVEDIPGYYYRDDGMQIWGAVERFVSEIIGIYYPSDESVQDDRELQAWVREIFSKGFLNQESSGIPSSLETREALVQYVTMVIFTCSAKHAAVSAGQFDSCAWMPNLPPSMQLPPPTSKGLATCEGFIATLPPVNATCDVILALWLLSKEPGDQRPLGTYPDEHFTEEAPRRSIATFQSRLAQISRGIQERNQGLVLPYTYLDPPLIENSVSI
Method in brief: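 Enzyme 50 nM, AA 45 uM, 25 mM Hepes pH 7.5 + 0.01% Triton X-100; cpd preinc 15 min RT, rxn 90 min RT; stop/detect with 200 uM XO + 300 uM Fe(II) in 50 mM H2SO4, 30 min; A573/A405.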
% is set by controls: 0 for no effect and ±100 for the full control effect; potency is the fitted concentration of half-maximal effect; tags give direction and shape of the fitted curve.
Note: nearly all actives have a fitted effect of over 60% in size.

Row | Structure (SMILES) | Potency | activity change, negative = inhibition
1 | COc1ccc(CCC(C(O)C(F)(F)F)S(=O)c2ccccc2)cc1 (stereo not drawn) | inconclusive: 39.8 µM [inhibitor, single point] | 
2 | COc1ccc2[nH]cc(CCNc3cc(-c4c(C)noc4C)ncn3)c2c1 | inactive | 
3 | COc1ncc2ncc(=O)n(Cc3cccs3)c2n1 | inconclusive: 5.01 µM [inhibitor, single point] | 
4 | CCSc1nnc(NC(=O)C(C(F)(F)F)C(F)(F)F)s1 | inactive | 
5 | Cc1ccccc1C(=O)Nc1ccc(Br)c(C)n1 | inactive | 
6 | COc1ccc(N=c2oc3c(OC)cccc3cc2C(=O)NCc2ccco2)c(OC)c1 | inconclusive: 25.1 µM [inhibitor, single point] | 
7 | O=C(CCN1C(=O)c2ccccc2C1=O)NC(=S)Nc1cccc(Cl)c1 | inconclusive: 25.1 µM [inhibitor, partial curve] | 
8 | Cc1cccc(C)c1OCCCCn1cnc2ccccc2c1=O | inconclusive: 25.1 µM [inhibitor, single point] | 
9 | CCc1ccccc1N1CCN(S(=O)(=O)c2cc(OC)ccc2OC)CC1 | inactive | 
10 | O=C1OCCN1C(=O)[C@H]1[C@H](c2ccc([N+](=O)[O-])cc2)C(c2ccccc2)=NN1c1ccccc1 | inconclusive: 17.8 µM [inhibitor, partial curve] | 
11 | CCOC(=O)c1c(C)[nH]c(C(C)=O)c1C | inactive | 
12 | Cc1ccc(C)n1C(Cc1ccccc1)C(=O)O (stereo not drawn) | inconclusive: 25.1 µM [inhibitor, single point] | 
13 | CC/C(=C(/CC)c1ccc(O)cc1)c1ccc(O)cc1 | inconclusive: 15.8 µM [inhibitor, partial curve] | 
14 | Cc1cccc(OCCN2CSC(=S)N(C)C2)c1 | inconclusive: 15.8 µM [inhibitor, partial curve] | 
15 | CC1CCCCN1S(=O)(=O)c1ccc(NC(=O)c2cccc(-n3cnnn3)c2)cc1 (stereo not drawn) | inactive | 
16 | Cc1ccccc1-c1cc(Nc2ccc(F)cc2)ncn1 | inactive | 
17 | CC(C)(Sc1ccc(CCN(CCCCC2CCCCC2)C(=O)NC2CCCCC2)cc1)C(=O)O | inconclusive: 31.6 µM [inhibitor, partial curve, poor fit] | 
18 | Cc1ccc(C(=S)NCS(=O)(=O)c2ccc(C)cc2)cc1 | inconclusive: 31.6 µM [inhibitor, single point] | 
19 | O=C1C(Cl)=C(Nc2ccccc2O)C(=O)N1c1ccccc1 | inconclusive: 12.6 µM [inhibitor, partial curve] | 
20 | CCOC(=O)c1cc(-c2ccccc2)sc1NC(=O)CN1C(=O)NC(CC)(c2ccccc2)C1=O (stereo not drawn) | inconclusive: 25.1 µM [inhibitor, single point] | 
21 | CCOC(=O)/C(C#N)=C1/C=Cc2ccccc2N1CC | inactive | 
22 | COc1ccc(N(CC(=O)NC2CCCCC2)S(=O)(=O)c2c(C)[nH]c(=O)[nH]c2=O)cc1 | inactive | 
23 | CCCCCCCCOc1ccc(C(=O)O)cc1 | inconclusive: 3.98 µM [inhibitor, full curve] | 

Row | Structure (SMILES) | Potency | activity change, negative = inhibition
24 | CCOC(=O)CSc1nnc(NCC(=O)OC(C)C)c(=O)[nH]1 | inconclusive: 31.6 µM [inhibitor, single point] | 
25 | Cc1ccc(-c2ccnc(=S)[nH]2)cc1 | inconclusive: 12.6 µM [inhibitor, partial curve] | 
26 | O=C(Nc1cccc2nsnc12)c1ccc(-c2cccc(Cl)c2)o1 | inconclusive: 12.6 µM [inhibitor, partial curve, poor fit] | 
27 | COc1ccc(-c2nnc(-c3cc4c(ccc5ccccc54)oc3=O)o2)cc1 | inconclusive: 25.1 µM [inhibitor, single point] | 
28 | CCN(c1ccccc1)S(=O)(=O)c1ccc(NC(=S)NC(=O)c2cccs2)cc1 | inconclusive: 10 µM [inhibitor, partial curve, poor fit] | 
29 | Cc1ccc(-c2nc3ncccn3c2Nc2ccc3c(c2)OCCO3)o1 | inconclusive: 20 µM [inhibitor, single point] | 
30 | COc1cccc(/C=c2\sc3nc(-c4cccs4)nn3c2=O)c1OC | inactive | 
31 | CC1CCN(c2ccc(NC(=S)NC(=O)c3ccc(-c4cccc([N+](=O)[O-])c4)o3)cc2)CC1 | inconclusive: 25.1 µM [inhibitor, partial curve] | 
32 | Cc1c(C(=O)Oc2ccc(-c3cnc4ccccc4n3)cc2)cccc1[N+](=O)[O-] | inconclusive: 5.01 µM [inhibitor, partial curve] | 
33 | O=C(/C=C/c1ccco1)NC(=S)Nc1ccccc1N1CCOCC1 | inconclusive: 25.1 µM [inhibitor, single point] | 
34 | CC(C)(C)CC(C)(C)c1cc(O)c(O)c(CN2CCCCC2)c1 | inconclusive: 3.98 µM [inhibitor, partial curve, poor fit] | 
35 | CCOn1c(SC(C)C)nc2ccccc2c1=O | inactive | 
36 | CCCCCCCCCCCC1=C(O)C(=O)C=C(O)C1=O | active: 31.6 µM | 
37 | O=C(NC(=S)N1CCN(c2c(Cl)cccc2[N+](=O)[O-])CC1)c1cccs1 |  | inconclusive: -35.3% [inhibitor] [at 11.4 µM]
38 | CCCCCCn1c(N2CCC(C)CC2)nc2c1c(=O)[nH]c(=O)n2C | inconclusive: 31.6 µM [inhibitor, single point] | 
39 | CCc1cccc(C)c1NC(=O)CSc1nc2ccc(N3C(=O)c4ccccc4C3=O)cc2s1 | inconclusive: 10 µM [inhibitor, partial curve] | 
40 | CCCCCCCCCCCCCC(=O)O | inconclusive: 31.6 µM [inhibitor, partial curve, poor fit] | 
41 | COC(=O)Nc1nc(-c2ccccc2)c(C(=O)c2ccc(Cl)cc2)s1 | inactive | 
42 | Cc1cccc(NC(=S)Nc2ccc(Br)cc2)c1 | inconclusive: 0.631 µM [inhibitor, partial curve] | 
43 | CCC(=S)/C=C1\Sc2ccc3ccccc3c2N1CCCS(=O)(=O)O | inconclusive: 15.8 µM [inhibitor, partial curve] | 
44 | C=C1c2cc(CC)ccc2NC(=O)N1c1ccc(C)cc1 | inconclusive: 25.1 µM [inhibitor, partial curve] | 
45 | Cc1c(C(=O)O)oc2ccc(S(=O)(=O)NCc3ccc(F)cc3)cc12 | inactive | 
46 | CCCCOc1ccc(-c2nc(=S)[nH][nH]2)cc1 | inconclusive: 12.6 µM [inhibitor, partial curve] | 

Row | Structure (SMILES) | Potency | activity change, negative = inhibition
47 | COCC(=O)N1CCC2(CC1)CN(c1ccc(-c3ccccc3)cc1)C2 | inconclusive: 10 µM [inhibitor, partial curve] | 
48 | Cc1cc(C)cc(NS(=O)(=O)c2ccc(NC(=S)NC(=O)c3ccc(Br)o3)cc2)c1 | inconclusive: 12.6 µM [inhibitor, partial curve] | 
49 | CN(C)c1ccc(CNC(=O)C2(C)C=CCN2C(=O)c2ccccc2)cc1 (stereo not drawn) | inactive | 
50 | O=C(NC1CCCCC1)C(c1ccco1)N(Cc1cccs1)C(=O)Cn1nnc2ccccc21 (stereo not drawn) | inactive | 
51 | O=C(NC(=S)NCCc1ccccc1)c1ccco1 | inconclusive: 25.1 µM [inhibitor, single point] | 
52 | Cc1ccc(C2CC(=O)N3CN(c4ccc(Br)cc4)CSC3=C2C#N)o1 (stereo not drawn) | inconclusive: 31.6 µM [inhibitor, single point] | 
53 | COc1cnn(-c2ccccc2)c(=O)c1SCc1ccc(Cl)cc1Cl | inactive | 
54 | Cc1ccc(-c2nc3ccccc3o2)cc1NC(=S)NC(=O)c1cccs1 | inconclusive: 20 µM [inhibitor, partial curve] | 
55 | O=C(N/N=C\c1ccc(-c2ccccc2[N+](=O)[O-])o1)C1COc2cc3ccccc3cc2O1 (stereo not drawn) | inconclusive: 0.316 µM [inhibitor, full curve, poor fit] | 
56 | Cc1c(N2C(=O)c3ccc4c5c(ccc(c35)C2=O)CC4)c(=O)n(-c2ccccc2)n1C | inconclusive: 31.6 µM [inhibitor, single point] | 
57 | O=C(OC1CCCCC1=O)c1cccc(S(=O)(=O)NCc2ccccc2)c1 (stereo not drawn) | inactive | 
58 | CCOC(=O)C(C)N1C(=O)S/C(=C/c2cc(C)n(-c3ccccn3)c2C)C1=O (stereo not drawn) | inconclusive: 12.6 µM [inhibitor, partial curve] | 
59 | CC(C)=CCC/C(C)=C/CC/C(C)=C/CSc1ccccc1C(=O)O | inconclusive: 31.6 µM [inhibitor, single point] | 
60 | c1ccc2cc(-c3cc(-c4cc(-c5ccc6ccccc6c5)on4)no3)ccc2c1 |  | inactive: 14% [at 11.4 µM]
61 | CCOc1ccc(NS(=O)(=O)c2ccc(NC(=S)NC(=O)CC(C)C)cc2)cc1 | inconclusive: 15.8 µM [inhibitor, partial curve] | 
62 | C=CCn1c(=O)c2c(C)c(C)sc2n2c(Nc3ccc(OC)cc3)nnc12 | inconclusive: 31.6 µM [inhibitor, partial curve] | 
63 | Oc1cc(O)c2c(c1)O[C@@H](c1ccc(O)c(O)c1)[C@H](O[C@@]1(c3cc(O)c(O)c(O)c3)Oc3cc(O)cc(O)c3[C@H](O)[C@@H]1O)C2 | inconclusive: 2.51 µM [inhibitor, partial curve] | 
64 | CN1c2ccccc2C(C)(C)C12CCCC(=O)N2 (stereo not drawn) | inconclusive: 12.6 µM [inhibitor, partial curve] | 
65 | Cc1cc(N2CCN(c3ccccc3F)CC2)nc2cc(O)ccc12 | inconclusive: 0.251 µM [inhibitor, full curve, poor fit] | 
66 | Cc1ccc(/C=C(\C#N)c2nc3ccccc3[nH]2)s1 | inconclusive: 6.31 µM [inhibitor, partial curve] | 
67 | Cc1[nH]n(C(C)(C)C)c(=O)c1Sc1ccccc1 | inconclusive: 12.6 µM [inhibitor, partial curve] | 
68 | Cc1cccc(CNc2ncnc3ccc(-c4cccnc4)cc23)c1 | inactive | 

— PubChem BioAssay AID881 (National Center for Advancing Translational Sciences (NCATS), 2007)
